Data as given in PubChem BioAssay AID1963832 (Molecular Pharmacology Branch, DTP, NCI, 2024).
Some entries of the source have several records that differ or are many. The list is limited to them. There may be further records. The values listed for one entry are repeated measurements across runs, samples, wells, individuals or studies. Marks such as [2022-09] give the month of the run. Counts like (3×) stand for listed records that agree.

System: 885724-159-R-J1-PDC complex spheroid viability
Experiment: Anticancer human tumor 885724-159-R-J1-PDC patient-derived pancreatic adenocarcinoma cell line growth inhibition [POLQ]
Details: compound alone 10 µM; stronger effect = lower value
Procedure: Multicellular complex tumor spheroid response to Polymerase (POL) inhibitors (novobiocin, ART-558, RP6685) in combination with a variety of drugs and investigational agents in selected tumor cell lines
The POL inhibitors (novobiocin, ART-558, and RP6685) were evaluated both individually and in combination with standard of care and investigational anticancer small molecules within a complex spheroid model of solid tumors. . Complex spheroids include a stromal component modeled by human endothelial cells (HUVEC) and fibroblasts modeled by human mesenchymal stem cells (MSCs). The concentration ranges selected for each drug and investigational agent were based upon clinically achievable concentrations if the clinical Cmax of the agent was known.
Compounds. […] If the clinical Cmax for an agent had not been determined, the highest concentration tested was 10 microM, except for SN-38, which was tested at a high concentration of 1 microM. […]
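Further: spheroids exposed to compounds for 7 days.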

Cc1cccc(N(C)C(=O)C2C(O)CCN2c2nc(C)cc(C(F)(F)F)c2C#N)c1 (stereo unspecified)
viability, T/C: 107 (2×), 118, 101, 95.5, 89.5, 110, 111% [2023-11] and 96.9, 107, 108, 99.6, 112% [2023-12]
